Over roughly 33,000 sequences, “E-score (-0.5 to 0.5)” has its median near -0.012; the highest 2% begin near 0.29. This is one part of the list.
These sequences were tested against T1, Ybr033w (UniProt P38073) (assay: PBM E-score (8-mer binding enrichment) (E-score (-0.5 to 0.5)); higher = stronger / more preferred TF binding; most listed sequences are background and not binding sites). Conditions: protein concentration: 200 nM; construct: GST-full length.
T1 sequence: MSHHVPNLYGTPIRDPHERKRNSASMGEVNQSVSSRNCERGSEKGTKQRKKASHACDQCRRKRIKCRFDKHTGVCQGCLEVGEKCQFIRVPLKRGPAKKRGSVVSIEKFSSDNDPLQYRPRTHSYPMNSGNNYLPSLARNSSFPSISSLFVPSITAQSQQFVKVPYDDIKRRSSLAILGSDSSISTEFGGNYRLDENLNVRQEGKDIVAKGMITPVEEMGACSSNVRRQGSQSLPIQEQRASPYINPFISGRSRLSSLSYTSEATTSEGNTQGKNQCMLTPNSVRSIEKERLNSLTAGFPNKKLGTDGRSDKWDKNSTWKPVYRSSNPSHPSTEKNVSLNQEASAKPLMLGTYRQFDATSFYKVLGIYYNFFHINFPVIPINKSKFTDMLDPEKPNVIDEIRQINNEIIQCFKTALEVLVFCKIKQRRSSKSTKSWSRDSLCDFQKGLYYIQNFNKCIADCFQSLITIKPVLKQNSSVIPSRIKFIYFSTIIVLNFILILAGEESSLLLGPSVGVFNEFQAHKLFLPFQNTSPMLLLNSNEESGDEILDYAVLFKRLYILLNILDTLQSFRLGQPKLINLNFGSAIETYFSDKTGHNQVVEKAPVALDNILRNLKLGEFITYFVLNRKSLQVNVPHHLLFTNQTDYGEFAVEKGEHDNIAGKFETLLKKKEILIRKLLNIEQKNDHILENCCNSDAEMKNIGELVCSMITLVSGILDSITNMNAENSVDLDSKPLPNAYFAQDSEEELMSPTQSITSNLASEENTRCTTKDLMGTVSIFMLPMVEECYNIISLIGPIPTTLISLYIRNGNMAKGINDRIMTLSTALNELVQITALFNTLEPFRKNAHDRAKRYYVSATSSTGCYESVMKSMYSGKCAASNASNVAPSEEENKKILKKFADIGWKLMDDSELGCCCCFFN
Experimental: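 Universal 'all 10-mer' protein binding microarrays (Agilent AMADID 015681) probed with GST-tagged S. cerevisiae TFs (full-length or DBD) made by in vitro transcription/translation (PURExpress), about 100-200 nM. Bound TF was detected with fluorescent anti-GST. Each ungapped 8-mer (which stands for itself and its reverse complement) is scored by the PBM enrichment score (E-score), a modified Wilcoxon-Mann-Whitney statistic from -0.5 to +0.5, computed with the Universal PBM Analysis Suite. Scale: above 0.35 generally sequence-specific binding.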

Sequence	PBM E-score
CGGAATAG	0.126
CGGTTGCC	-0.0518
AATGTTAG	0.0264
CACAAGCG	-0.127
GCTCCTGA	-0.202
GAGAGAAC	-0.0888
CGCAGGGC	-0.114
ACTGGAAT	0.262
ACGGCCAC	-0.0796
ATGGTTGA	0.0977
CACAACTA	0.211
CTCACAAA	0.21
AATTCAGG	0.09
CGCGTGGC	-0.292
GGTGCTAA	0.108
AATCAATG	0.189
AATCTACG	-0.0149
GTGTGAGA	0.0206
CAGTGTAC	-0.0838
TAACAATA	0.273
GATCTTGA	-0.00031
AAGCGCCG	-0.027

Sequence	PBM E-score
CCAACAAC	0.00586
GGACGAAA	-0.104
AAAGTTGA	0.116
CCTCTACA	-0.166
ATGTTTGG	-0.035
AGGCTCAC	-0.218
CACTTAAA	0.104
AGCATTTC	0.106
GACCCCCC	-0.327
ATACTTCG	0.0341
CTTCGGAA	0.243
TAAAAGCA	0.00415
AGGCCACC	-0.229
TCTTGGAA	0.221
AGAATAAT	0.163
CATAATAC	0.0785
TCAAAGAA	0.141
ATTCTAGC	0.0909
CAGATATG	-0.0501
GTGGGTTA	-0.14
ATACTAAT	0.184
GAAGGGTA	0.121

Sequence	PBM E-score
GCATTGGA	0.0503
GCCATGCC	-0.0922
CATTACGC	-0.142
ATGTGGGC	-0.0747
CACAGCTA	-0.066
CGATAGGA	0.0895
ACGGACGG	-0.225
GCTCCAGA	-0.152
AATCCCAC	0.0588
CGTCGCCC	-0.312
CCCCAGCC	-0.152
ATAAGCAT	-0.064
CAAGATAC	0.151
CAGGTGGG	-0.0846
ATGGAAGA	0.268
ATGTATAA	0.0359
AAGCGATG	-0.212
TGGGCCAA	-0.142
GAAAACAA	0.115
GGAGATTA	0.148
CTATCTCC	-0.0881
AGCCGACA	-0.166

Sequence	PBM E-score
TGAACGCA	0.0921
CGGTGATC	-0.194
AATCTTCG	0.0477
ACGGCTGA	-0.132
AATCCTCC	0.0532
CCTTCTTC	-0.064
AGCGACAC	-0.0516
AACTGTCG	0.0332
CTGGTAAG	0.121
ACATATTA	0.349
AAGAGGAA	0.095
AGGTTTGA	-0.0546
ATGTGTGG	-0.00406
GGCGGTAC	-0.334
GATGCGCA	0.0311
TCAGCGCA	-0.129
GGAGCGTA	0.057
ACAAATAT	0.287
TCTCTCAA	0.238
AGACAACA	-0.0111
